Out of some 410,000 compounds screened, about 7,200 (1.8%) were called active. The inconclusive results got no clear call from the source; some entries with a clear call stand among them for comparison. The call rests on the fitted dose curve; in most records, active means well fitted activation curve with a large enough effect; inconclusive means small, poorly fitted or top-dose-only effect, or another doubt; inactive means no such curve, though single readings can be large or run the other way. Potencies of inconclusive entries are left out as doubtful fits.
assay: qHTS of TDP-43 Inhibitors; settings: TDP-43 expressing yeast growth rescue, BacTiter-Glo, 24 h; growth rescue (activation): at 46.1 µM (top of the series) unless noted; further: nearly all actives have a fitted effect of over 50% in size; on growth rescue (activation): % of control where 0% means no effect
In short: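 In this qHTS, compounds that restore growth of yeast expressing TDP-43 appear as activators. Cells (OD600=0.02, galactose medium, raffinose-pregrown) are incubated with compound 24 hr at 30 deg C and growth is quantified by BacTiter-Glo.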
Potency means the concentration at half of the fitted maximal effect; tags describe the fitted curve by direction and shape.

| SMILES | Potency | growth rescue (activation) |
| --- | --- | --- |
| Cc1ccc(NC(=O)Cn2nc(C(F)(F)F)c3c2CCCC3)cc1C | inactive |  |
| CC1CC(C)CN(C(=O)CSc2ccsc2[N+](=O)[O-])C1 (stereo not drawn) | inconclusive [activator, partial curve] |  |
| O=C(O)c1sc2cccc(Cl)c2c1Cl | inconclusive [activator, partial curve] |  |
| COc1ccc(C(=O)c2cnc3ccccc3c2-c2ccccc2)cc1 | active: 35.5 µM |  |
| Cc1cc(NC(=O)c2ccc(Br)cc2)nc(C)n1 | active: 15.8 µM |  |
| Cn1c(C(=O)Nc2ccccc2)cc2sccc21 | active: 12.6 µM |  |
| O=C(NCCCc1ccccc1)c1cncc(Br)c1 | inconclusive [activator, partial curve] |  |
| N#Cc1c(-c2ccccc2)nc2n(c1=O)CCS2 | active: 35.5 µM |  |
| N#Cc1c(/N=C/c2ccc(-c3ccc(C(=O)O)c(Cl)c3)o2)sc2c1CCCC2 | inactive |  |
| Cc1cc(C)nc(Sc2ncnc3sc4c(c23)CCC4)n1 | active: 20 µM |  |
| O=C(Nc1nc2c(F)cc(F)cc2s1)c1ccccn1 | inconclusive [activator, full curve, poor fit] |  |
| C=CCOc1ccc(C(=O)O)cc1Cl | inconclusive [activator, full curve] |  |
| COc1cnc(-c2ccccn2)nc1Sc1cccc(Cl)c1 | inconclusive [activator, single point] |  |
| CCCCn1cnc2cc(NCc3ccccc3Cl)ccc21 | inactive |  |
| Cn1c(=O)c2nc(-c3ccccc3)oc2c2ccccc21 | active: 10 µM |  |
| O=S(=O)(NCCc1csc2nc(-c3ccccc3)nn12)c1cc(F)ccc1F | active: 22.4 µM |  |
| CC(=O)N1CCCc2cc(S(=O)(=O)N3CCCC(C(=O)N4CCN(c5ccccc5)CC4)C3)ccc21 (stereo not drawn) | inactive |  |
| CN(c1ccccc1)S(=O)(=O)c1cc(C(=O)OCC(=O)c2c(N)n(C)c(=O)n(C)c2=O)ccc1Cl | inconclusive [activator, single point] |  |
| CC(C)(C)c1cc(C(=O)O)n(Cc2ccc(Cl)cc2Cl)n1 | inconclusive [activator, partial curve] |  |
| Cc1cccc(CSCc2nnc(N)s2)c1 | inconclusive [activator, full curve, poor fit] |  |
| COc1ccc(CCNC(=O)CCCN2C(=O)c3ccccc3C2=O)cc1 |  | inactive: 20.8% [at 9.22 µM] |
| O=C(NCc1ccc(Cl)cc1)NCc1noc2ccccc12 | inactive |  |
| CCCCn1nc(NS(=O)(=O)c2cccc3nonc23)c2cc3cccc(C)c3nc21 | inactive |  |
| O=C(Nc1ccc(OC(F)(F)F)cc1)N1CCc2nc(NCc3cccc(Oc4ccccc4)c3)ncc2C1 | inconclusive [activator, single point] |  |

| SMILES | Potency | growth rescue (activation) |
| --- | --- | --- |
| COc1ccc([C@H]2/C=C\CN(C(=O)CC(C)(C)C)[C@@H](C)C(=O)N2Cc2ccc(F)cc2)cc1 | active: 35.5 µM |  |
| Cc1csc(CN(C)C(=O)c2cn(Cc3cccc4ccccc34)nn2)n1 | inconclusive [activator, partial curve] |  |
| Cc1cc(C)c2sc(NNC(=O)C3COc4ccccc4O3)nc2c1 (stereo not drawn) | inconclusive [activator, partial curve] |  |
| O=C(N1CCN(c2ccc(F)cc2)CC1)C12CC3CC(CC(C3)C1)C2 | inconclusive [activator, single point] |  |
| COc1ccc(CCNC(=O)c2nc(-c3ccc(Cl)cc3)n3c2CCCCC3)c(OC)c1 | inconclusive [activator, single point] |  |
| CCOc1ccc(NC(=O)c2cccc(OC(=S)N3CCC(C)CC3)c2)cc1 | inconclusive [activator, partial curve, poor fit] |  |
| COc1ccc(OCc2ccc(-c3nc(C#N)c(NC(C)c4ccccc4)o3)o2)cc1 (stereo not drawn) | inactive |  |
| COc1ccc(CNC(C)C2COc3ccccc3O2)c(OC)c1 (stereo not drawn) | inactive |  |
| CN(CCNC(=O)c1cc2c(=O)n(C)c3ccccc3c2n1C)Cc1ccccc1 | inactive |  |
| O=C1C=C(c2ccnc3cc(Cl)ccc23)C[C@@H](c2ccc3c(c2)OCO3)C1 | active: 22.4 µM |  |
| COc1ccccc1N1CCN(c2nc(C)cc(C)c2C#N)CC1 | inconclusive [activator, single point] |  |
| CC(CCc1ccccc1)NC(=O)CSc1ccccc1 (stereo not drawn) | inconclusive [activator, partial curve, poor fit] |  |
| Cc1ccc(S(=O)(=O)c2nnn(-c3ccc(F)c(Cl)c3)c2N)cc1 | inactive |  |
| COc1cccc(NC(=O)c2cccc(Cl)c2)c1 | inconclusive [activator, partial curve] |  |
| COC(=O)C(C)Oc1ccc2c(c1)O/C(=C\c1ccco1)C2=O (stereo not drawn) | inactive |  |
| Cc1ccc(F)c(C2=CC(=O)C[C@H](c3ccc(F)cc3)C2)c1 | inconclusive [activator, single point] |  |
| CCN1C(=O)[C@H]2[C@@H](c3ccc(C(F)(F)F)cc3)N[C@]3(CCCN(Cc4ccc(Cl)cc4)C3=O)[C@H]2C1=O | inconclusive [activator, partial curve] |  |
| CCCCC[C@@H](/C=C/C1C(=O)C=C[C@H]1C/C=C\CCCC(=O)O)OC(C)=O (stereo partly drawn) | inconclusive [activator, partial curve] |  |
| CCc1nn2c(=O)cc(COC(=O)c3ccccc3)nc2s1 | inactive |  |
| Cc1ccc(-c2nnc(NC3CCCC3)s2)cc1 | inconclusive [activator, partial curve] |  |
| C/C(=N\N(C)C)c1ccc(OCCOc2ccc([N+](=O)[O-])cc2)cc1 | inconclusive [activator, single point] |  |
| O=C(c1cccs1)N1CCN(c2cc(Cl)ccc2Cl)CC1 | active: 22.4 µM |  |
| CCC1CN(C(=O)N2CCC(C(=O)Nc3ccccc3OC)CC2)c2ccccc2O1 (stereo not drawn) | inconclusive [activator, single point] |  |
| CCOc1ccc(C(=O)NC(=S)Nc2ncccc2C)cc1[N+](=O)[O-] | inconclusive [activator, partial curve] |  |

From PubChem BioAssay AID652104 (National Center for Advancing Translational Sciences (NCATS), 2013)
